From the supplement of paper PMC11417369 come the findings set out here.

± gives the standard deviation of the averaged measurements. The list shows a part of the results.

The test deals with PfAP2-EXP AP2 domain (GST-tagged). In words: gcPBM binding intensity (ln(normalized median fluorescence intensity)); higher = stronger DNA binding. Put shortly:
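Binding intensity is the highest Masliner-normalised natural-log median intensity over replicate spots in either probe orientation. To obtain it, GST-tagged P. falciparum DNA-binding domains made in E. coli were incubated for 1 h on an Agilent 4 × 180k array of primer-extended double-stranded 36-bp intergenic genomic probes plus negative controls. Detection used Alexa488 anti-GST antibody with scanning at 488 nm.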
For the sequence “TATATACATATATATACACACATATATATATTTTAT [CACACA_site3788]”, the “gcPBM binding intensity (ln)” value came to 8.26 ± 0.4.
To “TATATAAATAAATGTGTACACACATTAAAATCAAAC [CACACA_site8733]” belongs 8.77 ± 0.28; to “CATATATTATTTAATAGTACATATAAAAGAAAAAAA [XGTACX_site4643]”, 8.62 ± 0.4.
Consider “TATATATATATAGACACACACACACCCATATATATA [CACACA_site4117]”, for which the “gcPBM binding intensity (ln)” value was found to be 10 ± 0.32.
On to “TATAACTATAAAAGTAGTACACATATATATTATATA [XGTACX_site1391]”, for which the “gcPBM binding intensity (ln)” value amounted to 8.645 ± 0.021.
Consider “TTTTTTTAAATATACACACACATTTATACCTATATA [CACACA_site7572]”, for which the “gcPBM binding intensity (ln)” value was 8.53 ± 0.5.
To “TTCCTAATTGACAACACACACAACAAAAAAGGGATT [CACACA_site1279]” belongs 8.9 ± 0.52; to “AATGGTTTAAAATACTGTACATATATATAAAAGTAA [XGTACX_site6187]”, 8.68 ± 0.38.
As for “CACTAAAATAAACACACACACACACCGATATATATA [CACACA_site9379]”, the “gcPBM binding intensity (ln)” value stood at 8.69 ± 0.43.
Turning to “TTAATTTTATTTTTTTGTACACATAAATATTATAAA [XGTACX_site4680]”, the “gcPBM binding intensity (ln)” value is 8.62 ± 0.31.
To “TATATTTATATGATAACACACATAAATTATACATTT [CACACA_site1671]” belongs 8.09 ± 0.4; to “CTTGTCATTTTGCACACACACATGTATAGGTTATTA [CACACA_site7431]”, 9.28 ± 0.21.
Next, “TAAATATATTAAGCTTGTACATGAAAAAAAAAAAAA [XGTACX_site3264]”: 8.63 ± 0.43; “AAAAAAAAAAAAAAAACACACAATAAAGTAAAATTT [CACACA_site135]”: 8.61 ± 0.31.
As to “ATATATAAATTTTAGTGTACATTAATTTTTTTTTTT [XGTACX_site7782]”, the “gcPBM binding intensity (ln)” value is 8.44 ± 0.4.
Consider “AGTCTGAATAAAATTACACACATATACATATATATA [CACACA_site1780]”, for which the “gcPBM binding intensity (ln)” value was determined as 8.43 ± 0.22.
Next, “TATGTATATAAATTAACACACATATGTGGTTAATAG [CACACA_site3143]”: 8.34 ± 0.23.
To “TACCTTTTTTGTTTTATGCACACCATATAACCAAGG [CACACA_site30]” belongs 8.82 ± 0.23.
Take “AAGAAATATTTATACACACACACAAACATATAAATA [CACACA_site6981]”: the “gcPBM binding intensity (ln)” value was determined as 8.87 ± 0.54.
Next, “TATAACTATTCACAGACATGCACATAATAACAATAA [TGCATGCA_site207]”: 8.98 ± 0.41; “TTTTTTTTTCCGTGTTGTACAAAAAAAAAGATTTTG [XGTACX_site3925]”: 8.69 ± 0.52.
Turning to “TAAAAAAAAAAAAAAGCATGCTATATTATATTACAC [TGCATGCA_site241]”, the “gcPBM binding intensity (ln)” value amounted to 8.74 ± 0.32.
To “TATATTTTTTTTGTGCGTACATACCATTTTAATAAT [XGTACX_site2751]” belongs 8.91 ± 0.28; to “CACAAACAAAAACACACACACACACCCACAAAAATG [CACACA_site2429]”, 8.49 ± 0.48; to “ATTGGGTACAAATACACACACATATAAATATTAATA [CACACA_site7173]”, 8.64 ± 0.43.
Next, “AATTATTGTATGCTATACGTTCCCCTCTAATTTATC [CACACA_negctrl_site1052]”: 8.73 ± 0.47.
To “TATTATTTTATGAATACACACATATACGAAAATATT [CACACA_site964]” belongs 8.39 ± 0.44.
As to “TATTTTTATATAATGTGTACTTATACCTTATTTTTT [XGTACX_site1658]”, the “gcPBM binding intensity (ln)” value turned out to be 8.58 ± 0.4.
To “TTTCCCTACCAAAAATGTACTTATAAGCGTTTTTAT [XGTACX_site739]” belongs 8.61 ± 0.42.
To “AAAAAAAAAAAACACACACACACACTAATACATACA [CACACA_site8135]” belongs 8.59 ± 0.64.
As for “TTTTTAAATTATTGCACACAAAAATGAAAGGAAAAA [CACACA_site1455]”, the “gcPBM binding intensity (ln)” value was determined as 8.84 ± 0.2.
Take “CTAAAAATCTTTTGTTGTACTTTTAGATAATCAGGA [XGTACX_site3968]”: the “gcPBM binding intensity (ln)” value was 8.26 ± 0.48.
Next, “TACATATTTATATACACACACACCGTCCGTGTTAAA [CACACA_site7413]”: 8.47 ± 0.23.
With “AAAGGGATGTTCATTCTTTTTTTTTTTTTTGTATAT [CACACA_negctrl_site511]”, the “gcPBM binding intensity (ln)” value is 8.12 ± 0.47.
On to “AAGTAAAAAAATAGCACACACACAAAAACACAGACA [CACACA_site4839]”, for which the “gcPBM binding intensity (ln)” value amounted to 8.94 ± 0.58.
Turning to “AGTGTATTTTTATGTTGTACATGTAATATTTTTGAT [XGTACX_site541]”, the “gcPBM binding intensity (ln)” value was found to be 8.73 ± 0.33.
Next, “TAATTCATCATATGCACACACAATACCAAAATGTGC [CACACA_site191]”: 8.61 ± 0.33; “TACAGATATTCATATAAACACACATACAAATTATGT [CACACA_site7929]”: 8.37 ± 0.38; “CTTTTTTTTTAAATATCACACACATATAATATATTC [CACACA_site9222]”: 8.36 ± 0.45.
To “TATATAATATATTAATGTACGTTATATGTATTCCTT [XGTACX_site6140]” belongs 8.42 ± 0.4.
On to “TATGTGGCACAAAAGGGTACATATAATTTATACAGG [XGTACX_site5499]”, for which the “gcPBM binding intensity (ln)” value is 8.88 ± 0.43.
As for “TGTGTACCGATATTAAGTTTAACGTTATAAAAATAT [CACACA_negctrl_site1547]”, the “gcPBM binding intensity (ln)” value came out at 8.55 ± 0.32.
Turning to “AAACAGAATGCATATACACACATACAAAAAAGTGCA [CACACA_site6591]”, the “gcPBM binding intensity (ln)” value stood at 8.95 ± 0.45.
To “AAAGGACAAAAAAATGCATGCCGTTAAATTATGTAC [TGCATGCA_site512]” belongs 9.18 ± 0.47.
For the sequence “TTTCTAAACCGGTACAGTACATATAAAAATAGAATA [XGTACX_site6662]”, the “gcPBM binding intensity (ln)” value was found to be 8.78 ± 0.32.
